Laboratory results taken from publication PMC4336329 (PLoS ONE, 2015).
About 14,000 (4.5%) of roughly 310,000 compounds showed an effect of 50% or more. Effects have a minus sign here. This is one part of the list.

What follows are molecules tested against human ether-à-go-go-related gene (hERG) potassium channel (human, UniProt Q12809) (assay: primary screen, population patch clamp on CHO cells stably expressing hERG).
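Also: peak tail current of the secondary pulse compared with the same well before compound.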

Sequence of human ether-à-go-go-related gene (hERG) potassium channel (Q12809 whole entry, looked up): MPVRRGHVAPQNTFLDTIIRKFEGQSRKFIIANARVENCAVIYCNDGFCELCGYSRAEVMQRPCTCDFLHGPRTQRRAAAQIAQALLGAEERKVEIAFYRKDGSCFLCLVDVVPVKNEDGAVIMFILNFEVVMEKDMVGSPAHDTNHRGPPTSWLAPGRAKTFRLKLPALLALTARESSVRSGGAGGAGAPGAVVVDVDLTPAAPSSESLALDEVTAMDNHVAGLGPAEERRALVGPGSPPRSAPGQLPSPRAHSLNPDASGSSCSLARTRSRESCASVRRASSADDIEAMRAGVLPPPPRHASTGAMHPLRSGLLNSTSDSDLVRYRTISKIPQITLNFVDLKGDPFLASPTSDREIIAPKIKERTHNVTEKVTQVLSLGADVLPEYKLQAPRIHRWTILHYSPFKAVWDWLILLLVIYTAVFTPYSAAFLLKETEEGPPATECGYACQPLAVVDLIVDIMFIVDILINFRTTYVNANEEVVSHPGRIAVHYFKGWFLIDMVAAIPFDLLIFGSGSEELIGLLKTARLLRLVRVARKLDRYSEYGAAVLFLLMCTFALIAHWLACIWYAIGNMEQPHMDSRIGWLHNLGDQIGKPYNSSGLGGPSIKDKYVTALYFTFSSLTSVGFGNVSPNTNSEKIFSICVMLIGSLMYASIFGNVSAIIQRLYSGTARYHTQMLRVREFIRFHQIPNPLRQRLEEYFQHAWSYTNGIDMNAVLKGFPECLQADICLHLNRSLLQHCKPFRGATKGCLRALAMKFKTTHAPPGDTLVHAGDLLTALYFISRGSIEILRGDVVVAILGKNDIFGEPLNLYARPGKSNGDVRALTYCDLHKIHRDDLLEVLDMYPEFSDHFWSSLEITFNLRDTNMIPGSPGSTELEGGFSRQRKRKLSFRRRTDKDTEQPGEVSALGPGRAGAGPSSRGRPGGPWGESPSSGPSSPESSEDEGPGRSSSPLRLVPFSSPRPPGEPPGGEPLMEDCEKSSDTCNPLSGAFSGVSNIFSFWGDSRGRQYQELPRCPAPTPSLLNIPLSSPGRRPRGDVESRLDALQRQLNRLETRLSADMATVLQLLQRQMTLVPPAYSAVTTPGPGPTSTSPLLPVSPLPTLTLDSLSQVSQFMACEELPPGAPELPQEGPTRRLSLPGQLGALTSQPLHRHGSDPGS

First: CC(C)(C)NC(=O)CSc1nnc(-c2ccccc2)c(-c2ccccc2)n1
Second: O=C1OCCN1c1c(-c2ccccc2)c(-c2cccs2)nc2c(-c3ccccc3)cccc12
The “hERG current change (%, negative = inhibition) at 10uM” value of the first is lower: -8.75% for the first, 7.82% for the second.

First: CCOCCCn1c(=O)c2ccccc2n2c(=S)[nH]nc12
Second: CCOc1ccc(NC(=O)CSc2nc3ccccc3c(=O)n2CCCC(=O)NCC2CCCO2)cc1 (stereo not shown)
The “hERG current change (%, negative = inhibition) at 10uM” value of the first is higher: 19.8% for the first, 3.34% for the second.

First: COC(=O)C1=C(c2ccccc2)C[C@@H]2CC[C@H]1N2C(=O)NCCCOC(C)C
Second: COc1ccc(C(=O)NC(=S)N2CCNC(=O)C2CC(=O)OC(C)C)cc1 (stereo not shown)
The “hERG current change (%, negative = inhibition) at 10uM” value of the first is lower: 0.331% for the first, 11.4% for the second.

First: O=C(NC1CCCN(CCc2ccccc2)C1)c1c(F)cccc1F (stereo not shown)
Second: O=C(Nc1ccccc1)N1CCCc2ccccc21
The “hERG current change (%, negative = inhibition) at 10uM” value of the first is higher: -46.2% for the first, -79.2% for the second.

Going from CC1(C)CC(=O)C=C(c2cccc(Cl)c2O)C1 to O=C(O)c1sccc1NC(=O)c1c(Cl)cccc1Cl, the “hERG current change (%, negative = inhibition) at 10uM” value rises from -0.159% to 5.11%.

First: COc1ccc(CC(=O)c2c(O)cc(O)cc2O)cc1OC
Second: COc1ccc(CCNC(=O)c2ccc(CS(=O)(=O)c3ccc(Cl)cc3)o2)cc1OC
The “hERG current change (%, negative = inhibition) at 10uM” value of the first is higher: 7.54% for the first, -11.7% for the second.

Compared with CC(=O)N1c2ccc(S(=O)(=O)N3CCC(C(=O)Nc4ncccc4C)CC3)cc2CC1C (stereo not shown), CC(=O)N1CCN(C(=O)c2ccc(Cl)c(S(=O)(=O)N3CCc4ccccc43)c2)CC1 is lower in “hERG current change (%, negative = inhibition) at 10uM” value: 7.62% for the first, -27% for the second.

First: CC(C)CNC(=O)NC(=O)COC(=O)c1cc(F)cc(F)c1
Second: COC(=O)c1nnn(CC(=O)NC(=O)Nc2ccccc2F)c1C(=O)OC
The “hERG current change (%, negative = inhibition) at 10uM” value of the first is lower: -4.56% for the first, 7.82% for the second.

Compared with CCCCNCc1ccc(SC)cc1.Cl, Cc1ccc(C(C)C)c(OCCCNCc2cccnc2)c1.Cl is lower in “hERG current change (%, negative = inhibition) at 10uM” value: -22% for the first, -37.5% for the second.

First: CN(C)c1ccc(CNC(=O)C2CCC(CNc3c(N4CCCCC4)c(=O)c3=O)CC2)cc1 (stereo not shown)
Second: CN(C)S(=O)(=O)N1CCC(Oc2cccc(C(=O)N3CCCCCCC3)c2)CC1
The “hERG current change (%, negative = inhibition) at 10uM” value of the first is higher: 15.7% for the first, 4.1% for the second.

First: CC1CCCC(C)N1C(=O)c1ccc2c(c1)S(=O)(=O)c1ccccc1C2=O (stereo not shown)
Second: O=C(O)c1ccccc1C(=O)c1ccc2c(c1)CCC2
The “hERG current change (%, negative = inhibition) at 10uM” value of the first is lower: -10.4% for the first, 22.3% for the second.

First: Cc1c(Cl)cccc1NC(=S)NCCc1ccc(F)cc1
Second: Cc1cccc(-n2c(C)nc3c(cnn3-c3ccc(F)cc3)c2=O)c1
The “hERG current change (%, negative = inhibition) at 10uM” value of the first is higher: 15.8% for the first, -12.6% for the second.

Compared with CCCCCCC(=O)N1CCN(c2cc3c(cc2F)c(=O)c(C(=O)O)cn3CC)CC1, CCCCCN(C(=O)CCC(=O)OCc1ccc(C(C)C)cc1)c1c(N)n(CCCC)c(=O)[nH]c1=O is higher in “hERG current change (%, negative = inhibition) at 10uM” value: -18% for the first, 0.783% for the second.

Compared with COCCCNC(=O)C1CC(=O)N(C2CCCC2)C1 (stereo not shown), COc1ccc(C(=O)NCCN2CCCC2)cc1[N+](=O)[O-] is lower in “hERG current change (%, negative = inhibition) at 10uM” value: 11.6% for the first, -15.2% for the second.

Going from O=C(N/N=C/c1c(O)n(C2CC2)c(=S)[nH]c1=O)c1ccccc1 to O=C(N/N=C/c1ccccc1)c1n[nH]c2c1CCCC2, the “hERG current change (%, negative = inhibition) at 10uM” value falls from 32.2% to 10.9%.

Compared with CN(C)/N=C/C=C1\CC/C(=C\c2ccc(Br)cc2)C1=O, Cn1cccc1C(=O)/C(C#N)=C/c1ccc(F)cc1 is lower in “hERG current change (%, negative = inhibition) at 10uM” value: 8.94% for the first, 4.01% for the second.

First: Cc1cc(C)c(C#N)c(SCC(=O)NN2CC(=O)N(c3ccccc3F)CC2=O)n1
Second: Cc1nc2nc(SCC(=O)NCCCN3CCCCC3)nn2c(C)c1Cc1ccccc1
The “hERG current change (%, negative = inhibition) at 10uM” value of the first is higher: 4.43% for the first, -4.98% for the second.

Compared with Cc1ccc(N2NC(=O)/C(=C/C=C/c3ccco3)C2=O)cc1C, CN1C(=O)c2ccccc2C(C(=O)NCc2ccco2)C1c1c[nH]c2ccccc12 (stereo not shown) is lower in “hERG current change (%, negative = inhibition) at 10uM” value: 14.9% for the first, -12.2% for the second.

First: O=C(C1CCN(S(=O)(=O)c2c(Cl)cccc2Cl)CC1)N1CCCCCCC1
Second: CC(=O)N1CCN(S(=O)(=O)c2cccc(C(=O)NCCC3=CCCCC3)c2)CC1
The “hERG current change (%, negative = inhibition) at 10uM” value of the first is lower: -10.9% for the first, -8.54% for the second.

First: CC(=O)OC(COC1C[C@@H]2CC[C@@]1(C)C2(C)C)C[N+]1(C)CCCCC1.[I-] (stereo partly shown)
Second: COC(=O)C1C(=O)c2c([nH]c(C(=O)OC3CCCC3)c2C)CC1C (stereo not shown)
The “hERG current change (%, negative = inhibition) at 10uM” value of the first is higher: 12.5% for the first, -3.87% for the second.

Going from COCCCN1C(=O)C(=O)/C(=C(/O)c2ccccc2)C1c1ccc2c(c1)OCO2 (stereo not shown) to COc1cc(O)c(C(CC(=O)N2CCN(c3ccccc3)CC2)c2ccc3c(c2)OCO3)c(OC)c1 (stereo not shown), the “hERG current change (%, negative = inhibition) at 10uM” value rises from 11.4% to 11.9%.

Compared with O=C(Nc1ccc(C(=O)O)cc1)/C(=C\C=C\c1ccccc1)NC(=O)c1ccc(Br)cc1, O=C(CNC(=O)/C=C/c1ccccc1)N=Nc1c(O)n(Cc2ccccc2)c2ccccc12 is lower in “hERG current change (%, negative = inhibition) at 10uM” value: 3.91% for the first, -35.4% for the second.

Compared with Cc1[nH]nc2c1C(c1cccs1)C(C#N)=C(N)O2 (stereo not shown), COC(=O)c1c(C)[nH]c(C(=O)NCc2ccco2)c1C is lower in “hERG current change (%, negative = inhibition) at 10uM” value: 5.07% for the first, 0.67% for the second.

Compared with CCOc1ccc(CCN2C(=O)c3ccc(C(=O)O)cc3C2=O)cc1OCC, COc1ccc(OC)c2c(C)cc(N3CCN(C(=O)c4ccc(F)cc4)CC3)nc12 is lower in “hERG current change (%, negative = inhibition) at 10uM” value: -3.15% for the first, -20.8% for the second.

Compared with CNc1nc(NN)nc(Nc2ccccc2)n1, COC(=O)c1ccccc1NC(=O)CSc1nc2ncccc2[nH]1 is higher in “hERG current change (%, negative = inhibition) at 10uM” value: 9.76% for the first, 13.5% for the second.

Compared with Cc1cc(C)c2nc(SCC(=O)NCCC3=CCCCC3)cc(C)c2c1, CCN(CC)c1ccc(NC(=O)CSc2nc(C)cc(=O)[nH]2)cc1 is lower in “hERG current change (%, negative = inhibition) at 10uM” value: 9.92% for the first, 7.77% for the second.

Going from CCCCC(CC)C(=O)NCCCN1CCN(CCCNC(=O)C(CC)CCCC)CC1 (stereo not shown) to CCCCCC(=O)NC(NC(=S)N1CCOCC1)C(Cl)(Cl)Cl (stereo not shown), the “hERG current change (%, negative = inhibition) at 10uM” value rises from -18.3% to 6.03%.

Compared with COc1ccc(NC(=S)N2CCN(S(=O)(=O)c3ccccc3)CC2)cc1OC, COc1cccc(C(c2nnnn2Cc2ccccc2)N2CCN(C(=O)c3ccco3)CC2)c1OC (stereo not shown) is lower in “hERG current change (%, negative = inhibition) at 10uM” value: 0.832% for the first, -30.2% for the second.

Compared with CC(C)C(OC(=O)c1ccco1)C(=O)NCc1ccc2c(c1)OCO2 (stereo not shown), CC1(C(=O)NNC(=S)NCc2ccco2)CC1(Cl)Cl (stereo not shown) is higher in “hERG current change (%, negative = inhibition) at 10uM” value: -15.3% for the first, 29% for the second.

Going from O=C(CCCCCCCC(=O)NNC(=O)Nc1ccccc1)NNC(=O)Nc1ccccc1 to Cc1ccnc(NC(=O)CC(NC(=O)c2ccccc2Cl)c2ccccc2)c1 (stereo not shown), the “hERG current change (%, negative = inhibition) at 10uM” value falls from 12.2% to -16.3%.

Compared with CCOC(=O)CNS(=O)(=O)Cc1ccccc1, CNC(=O)CN(Cc1ccccc1)S(=O)(=O)c1ccc(Cl)cc1 is lower in “hERG current change (%, negative = inhibition) at 10uM” value: 6.87% for the first, -11.4% for the second.

First: COc1ccccc1C1=NOC(COc2ccc3c(C)cc(=O)oc3c2)C1 (stereo not shown)
Second: COc1ccc(C(CNC(=O)COc2ccccc2C)N2CCCCC2)cc1 (stereo not shown)
The “hERG current change (%, negative = inhibition) at 10uM” value of the first is higher: -6.41% for the first, -20.7% for the second.

First: COc1ccc(CC(=O)OCC(=O)Nc2ccc(N3CCOCC3)cc2)cc1
Second: COc1ccc(-c2cc(C3CCN(Cc4ccc([N+](=O)[O-])cc4)CC3)[nH]n2)cc1
The “hERG current change (%, negative = inhibition) at 10uM” value of the first is higher: -11.8% for the first, -73% for the second.

Compared with CCCC[N+]1(C)C2CC(OC(=O)C(CO)c3ccccc3)CC1C1OC12.[Br-] (stereo not shown), Cc1ccccc1NC(=S)NC(NC(=O)COc1ccccc1)C(Cl)(Cl)Cl (stereo not shown) is higher in “hERG current change (%, negative = inhibition) at 10uM” value: 3.26% for the first, 22.1% for the second.

Compared with CCOc1ccc(NC(=O)C(NC(=O)C2CCC(C)CC2)C(C)C)cc1 (stereo not shown), COc1ccc(C(=O)NC(C)c2nnc(SCC(=O)NC3CCCC3)n2C)cc1 (stereo not shown) is lower in “hERG current change (%, negative = inhibition) at 10uM” value: 11.7% for the first, 4.98% for the second.

First: CCSc1ccc2nnc(-c3ccc(F)cc3)n2n1
Second: CCc1nnc2n1N=C(c1ccc(OC)cc1)CS2
The “hERG current change (%, negative = inhibition) at 10uM” value of the first is lower: -55.6% for the first, -28.1% for the second.

First: Cc1ccc(C(c2c(C)n(C)n(-c3ccccc3)c2=O)c2c(C)n(C)n(-c3ccccc3)c2=O)s1
Second: O=c1c2ccccc2nc(Cc2ccccc2)n1-c1ccccc1
The “hERG current change (%, negative = inhibition) at 10uM” value of the first is higher: -4.34% for the first, -20.9% for the second.

First: O=C(N[C@H]1CC1c1ccccc1)c1ccc([N+](=O)[O-])cc1 (stereo partly shown)
Second: O=C(Nc1ccc(Cl)cn1)c1ccc(COc2ccccc2Br)o1
The “hERG current change (%, negative = inhibition) at 10uM” value of the first is lower: -6.56% for the first, 8.82% for the second.

Compared with Cc1onc(C(=O)/C=C/N(C)C)c1C(=O)Nc1nccs1, CC(OC(=O)c1nsc(Cl)c1Cl)C(=O)NC(C)(C)C (stereo not shown) is higher in “hERG current change (%, negative = inhibition) at 10uM” value: 8.26% for the first, 14.9% for the second.

First: Cl.Cn1nnnc1SCCNCc1ccccc1F
Second: Cc1ccc(CCNC(=O)c2cc(-c3ccncc3)nc3ccccc23)cc1
The “hERG current change (%, negative = inhibition) at 10uM” value of the first is higher: -0.9% for the first, -6.88% for the second.

Compared with C=Cc1ccc(CSc2cc(C)nc3nc(C)nn23)cc1, O=C(Nc1ccc(N2CCCC2)c(Cl)c1)c1cccnc1 is higher in “hERG current change (%, negative = inhibition) at 10uM” value: -36.2% for the first, -12.6% for the second.

Compared with O=C(CN1C(=O)NC2(CCCCCC2)C1=O)Nc1ccc(Cl)cc1Cl, CC(=O)Nc1ccc(S(=O)(=O)NCC(=O)OCC(=O)N2CCCCCC2)cc1 is higher in “hERG current change (%, negative = inhibition) at 10uM” value: 3.07% for the first, 6.34% for the second.

Compared with CCCn1c(SC2C(=O)CC(C)(C)CC2=O)nc2c1c(=O)n(C)c(=O)n2C, CC1CCCC(NC(=O)CN(C)CC(=O)Nc2cccc(F)c2)C1C (stereo not shown) is higher in “hERG current change (%, negative = inhibition) at 10uM” value: 8.98% for the first, 9.81% for the second.

Compared with O=C(CCCCCNC(=O)c1ccccc1)N=Nc1c(O)[nH]c2c(Br)cc(Br)cc12, COCCN(C(=O)C1CCC1)c1nnc(-c2cccnc2)s1 is higher in “hERG current change (%, negative = inhibition) at 10uM” value: -9.32% for the first, -0.683% for the second.
